# Data: article PMC4336329 (PLoS ONE, 2015)
# Out of some 310,000 compounds screened, about 2,200 (0.71%) showed an effect of 50% or more. The effect is printed as a negative number. Some of the results follow.
# Target: human ether-à-go-go-related gene (hERG) potassium channel (human, UniProt Q12809)
# Assay: primary screen, population patch clamp on CHO cells stably expressing hERG
# human ether-à-go-go-related gene (hERG) potassium channel, sequence (Q12809 whole entry, looked up): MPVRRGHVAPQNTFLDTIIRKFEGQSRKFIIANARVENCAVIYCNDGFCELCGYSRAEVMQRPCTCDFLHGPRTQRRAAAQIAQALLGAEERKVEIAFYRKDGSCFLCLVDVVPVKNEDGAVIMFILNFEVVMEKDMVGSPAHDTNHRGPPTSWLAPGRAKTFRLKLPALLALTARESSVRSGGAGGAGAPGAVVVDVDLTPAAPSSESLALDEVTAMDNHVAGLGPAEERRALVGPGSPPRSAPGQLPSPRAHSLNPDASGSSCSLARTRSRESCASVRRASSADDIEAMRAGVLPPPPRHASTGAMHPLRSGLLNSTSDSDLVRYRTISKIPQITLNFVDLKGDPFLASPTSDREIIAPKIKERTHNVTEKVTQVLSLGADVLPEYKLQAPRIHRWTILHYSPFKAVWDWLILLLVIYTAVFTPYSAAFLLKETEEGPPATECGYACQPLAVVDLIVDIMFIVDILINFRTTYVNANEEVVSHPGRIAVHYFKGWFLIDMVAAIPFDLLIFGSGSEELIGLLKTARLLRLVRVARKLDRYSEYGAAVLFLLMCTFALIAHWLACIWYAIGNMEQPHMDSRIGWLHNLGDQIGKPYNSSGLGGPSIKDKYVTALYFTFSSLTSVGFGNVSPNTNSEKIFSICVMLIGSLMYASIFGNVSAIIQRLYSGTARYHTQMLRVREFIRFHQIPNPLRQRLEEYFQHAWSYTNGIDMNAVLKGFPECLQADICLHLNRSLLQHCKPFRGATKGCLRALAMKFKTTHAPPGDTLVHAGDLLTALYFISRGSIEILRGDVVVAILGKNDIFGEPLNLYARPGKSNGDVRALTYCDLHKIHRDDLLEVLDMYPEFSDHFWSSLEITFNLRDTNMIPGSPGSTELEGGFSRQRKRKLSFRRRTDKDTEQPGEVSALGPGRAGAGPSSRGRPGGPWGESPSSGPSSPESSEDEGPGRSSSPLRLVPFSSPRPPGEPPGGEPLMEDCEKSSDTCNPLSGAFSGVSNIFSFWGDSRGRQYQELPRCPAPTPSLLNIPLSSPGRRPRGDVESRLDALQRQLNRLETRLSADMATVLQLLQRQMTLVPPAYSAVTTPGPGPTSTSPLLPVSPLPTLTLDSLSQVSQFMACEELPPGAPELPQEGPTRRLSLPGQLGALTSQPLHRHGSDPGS
row,SMILES,"hERG current change (%, negative = inhibition) at 1uM"
1,CCOC(=O)c1cc(NC(=O)c2c(C)noc2C)cc(C(=O)OCC)c1,-4.6%
2,Cc1cccc(-c2onc3ccc(C4(C)OCCO4)cc23)c1,3.13%
3,Cc1ccc(N2CC(C(=O)Nc3nnc(SCC(N)=O)s3)CC2=O)cc1 (centres unmarked),11.5%
4,O=C(CSc1nc(=O)n(CCCN2CCOCC2)c2c1CCCC2)Nc1ccccc1Cl,-6.82%
5,O=C(CCCN1C(=O)/C(=C\c2cccs2)SC1=S)NNC(=O)c1ccncc1,4.39%
6,CN(C)S(=O)(=O)c1ccc(NC(=O)COc2ncnc3c2cnn3-c2ccccc2)cc1,4.39%
7,CCC(C)NC(=S)Nc1ccc(C(=O)OC)cc1 (centres unmarked),15%
8,O=C(NCCc1ccccc1)C1CCCN(S(=O)(=O)c2cccs2)C1 (centres unmarked),-4.15%
9,Cc1c(OCC(=O)NC(Cc2ccc(Cl)cc2)C(=O)O)ccc2c3c(c(=O)oc12)CCCC3 (centres unmarked),15.8%
10,O=C(CSc1nnc(CNC(=O)c2ccc(F)cc2)o1)c1ccccc1,14.1%
11,Cc1cc(-c2ccc(C)c(S(=O)(=O)N3CCN(c4ccc(F)cc4)CC3)c2)on1,26.1%
12,CS(=O)(=O)N1CCC(Oc2cccc(C(=O)NCCCC3CCCC3)c2)CC1,11.8%
13,CCN(CC)S(=O)(=O)c1cc(C)c(C)cc1Br,12.9%
14,Cc1ccc(N2CS(=O)(=O)/C(=C/N(C)C)C2=O)cc1,5.99%
15,COc1ccc(NC(=O)Cc2c(C)n(C(=O)c3ccc(Cl)cc3)c3ccc(OC)cc23)cc1,8.49%
16,Cc1cc(Nc2ccccc2)n(-c2cccc(Cl)c2)n1,11.2%
17,CCn1nc(CC(C)C)cc1C(=O)N1CCCC(Nc2ccc(F)cc2)C1 (centres unmarked),2.47%
18,O=C(Cn1ncc(Cl)c(Cl)c1=O)c1ccc(Cl)cc1,0.544%
19,COc1ccc(C(=O)Cc2ccc(OC)c(OC)c2)cc1,13.1%
20,CN(Cc1ccccc1)C(=O)CN(C)S(=O)(=O)c1ccc(F)cc1,9.11%
21,COc1ccc(NC(=O)CNC(=O)N2CC(=O)Nc3ccccc32)cc1OC,25.4%
22,COc1ccc(CC(=O)Oc2ccccc2Cl)cc1S(=O)(=O)N1CCOCC1,17.1%

row,SMILES,"hERG current change (%, negative = inhibition) at 1uM"
1,CC(C)(NO)/C(=N/O)c1ccc(Br)cc1,3.45%
2,O=C(/C=C/c1ccco1)Nc1ccc(-c2nc3ccccc3[nH]2)cc1,6.91%
3,O=C(NNC(=O)c1ccccc1Cl)c1ccncc1,8.77%
4,CCOC(=O)N1CCN(C(=O)c2oc3ccc(S(=O)(=O)N(CC)CC)cc3c2C)CC1,15.7%
5,Cc1cc(N(CCO)CCO)ccc1C(c1ccc(N(CCO)CCO)cc1C)c1ccccc1Cl,5.61%
6,Cc1nn(-c2ccccc2)c(C)c1/C=N/n1c(-c2ccccc2Br)n[nH]c1=S,12.5%
7,Cc1ccc(NC(=S)N2CCCCCC2)c(C)c1,-3.24%
8,Cc1ccc(S(=O)(=O)NCC(=O)OCc2ccccc2Br)cc1,5.33%
9,COc1ccc(S(=O)(=O)NCC(=O)NCc2cc(=O)n(C)c(=O)n2C)cc1F,16.4%
10,CCOC(=O)C(C(=O)OCC)c1cc(Br)c2noc3c2c1C(=O)c1ccccc1-3,15.3%
11,CCC(=O)N1CCc2cc(S(=O)(=O)N3CCN(c4ccccc4Cl)CC3)ccc21,9.64%
12,O=C(O)c1cccc(N(CCO)CCO)c1,2.58%
13,CC1CCCCC1N=CC1=C(O)CC(C)(C)CC1=O (centres unmarked),9.16%
14,Cc1cccc(/C=N/c2sc3c(c2C#N)CCN(Cc2ccccc2)C3)c1O,10.9%
15,O=C(Nc1ccccc1F)N(CCCN1CCOCC1)Cc1cc2cc3c(cc2[nH]c1=O)OCCO3,9.36%
16,O=C1Nc2ccc(Br)cc2C1=Nc1ccc(-c2nnc3n2CCCCC3)cc1,9.81%
17,NC(=O)C1CCN(C(=O)/C=C/c2cc(Br)ccc2F)CC1,11.9%
18,Cc1ccccc1N=C1c2ccccc2C(=O)C1[N+](=O)[O-] (centres unmarked),-3.54%
19,Cc1cc(N/C(=N\S(=O)(=O)c2ccc(F)cc2F)c2ccccc2)no1,-4.58%
20,Cc1cc(C(=O)Nc2sc3c(c2C#N)CCC(C)C3)no1 (centres unmarked),11.6%
21,CCOC(=O)Cc1csc(NC(=O)/C=C/c2ccccc2Cl)n1,9.26%
22,COc1cccc(CNC(=S)NC2CC2)c1,17.2%
